Target: myc-XIAP (from pcDNA3-myc-XIAP) (UniProt P98170)
Assay: anti-myc co-immunoprecipitation from transfected 293 cells, immunoblot

B1: DR5 (wild-type, expressed from pcDNA3) (receptor)
chain: not shown
  binding result: no binding

— US20030049702A1 (BURNHAM INSTITUTE, published 2003)
